Among all 360,000 compounds or so, about 25,000 (6.9%) were called active. Inconclusive means that the source gave no clear call. Such entries were picked first, then a sample of the others. Calls come from the whole dose curve; as a rule, active = well fitted inhibition curve with a large enough effect; inconclusive = small, poorly fitted or top-dose-only effect; inactive = flat fitted curve, though single readings scatter. Where the call is inconclusive, the potency comes from a doubtful curve fit.
target: Luciferin 4-monooxygenase (Photinus pyralis) (UniProt P08659); assay: qHTS profiling assay for firefly luciferase inhibitor/activator using purifed enzyme and Km concentrations of substrates (counterscreen for miR-21 project); conditions: purified FLuc, luminescence inhibition; series mostly up to 57.5 µM; note: nearly all actives have a fitted effect of over 55% in size
Procedure, shortened: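 Biochemical qHTS of compounds, final roughly 60 µM downward over six points, against 10 nM purified firefly luciferase using Km concentrations of substrates (10 uM D-luciferin, 10 uM ATP) in Tris acetate pH 7.5 buffer; luminescence output.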
Potency is the fitted concentration of half-maximal effect; tags give direction and shape of the fitted curve.

Sequence of UniProt P08659 (P08659 whole entry, looked up): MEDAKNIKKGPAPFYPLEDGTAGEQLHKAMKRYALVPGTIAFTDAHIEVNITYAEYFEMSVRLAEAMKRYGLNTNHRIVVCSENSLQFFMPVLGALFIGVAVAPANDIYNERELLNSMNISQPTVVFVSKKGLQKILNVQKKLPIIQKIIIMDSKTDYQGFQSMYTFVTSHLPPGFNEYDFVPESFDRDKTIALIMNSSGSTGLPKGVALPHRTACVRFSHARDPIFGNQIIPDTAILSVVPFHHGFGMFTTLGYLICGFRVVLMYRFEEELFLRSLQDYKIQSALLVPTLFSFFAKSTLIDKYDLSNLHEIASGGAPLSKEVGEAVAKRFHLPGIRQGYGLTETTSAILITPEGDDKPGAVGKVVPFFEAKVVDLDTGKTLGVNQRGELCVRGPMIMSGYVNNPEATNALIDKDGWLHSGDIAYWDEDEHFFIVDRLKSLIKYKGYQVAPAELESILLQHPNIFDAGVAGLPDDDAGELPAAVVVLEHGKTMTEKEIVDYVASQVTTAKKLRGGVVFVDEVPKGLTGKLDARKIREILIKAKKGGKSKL

SMILES | Potency
CC(C)C(=O)Nc1cccc(-c2cnc3ccccc3n2)c1 | active: 15.1 µM
Cc1ccc(NC(=O)C2C3/C=C\CCCCC32)cc1 (configuration not stated) | inconclusive: 1.9 µM [inhibitor, partial curve, poor fit]
CCOC(=O)c1nn(-c2ccccc2)c(=O)c2c(N)sc(C)c12 | inactive
O=C(Nc1cccc2cccnc12)c1cccc([N+](=O)[O-])c1 | inconclusive: 23.9 µM [inhibitor, partial curve, poor fit]
CCc1ccc(CNC(=O)C2CCCN(S(=O)(=O)c3ccc4c(ccn4C)c3)C2)cc1 (configuration not stated) | inactive
Cc1cc(C)c2c(n1)sc1c(=O)n(-c3ccccc3C(F)(F)F)nnc12 | inactive
CCC(=O)N1CCc2cc(CNS(=O)(=O)c3cccs3)ccc21 | inconclusive: 30.1 µM [inhibitor, single point]
COc1ccc(C(=O)Nc2nccs2)cc1[N+](=O)[O-] | inactive
NC(=O)C1CCN(c2nc(-c3ccc(N4CCCCC4)nc3)cs2)CC1 | active: 4.78 µM
Cc1cccc(NC(=O)c2sc3nc(N)c(C#N)cc3c2N)c1 | active: 9.53 µM
Cc1nc2ccc(N=NN(C)C)cc2[nH]1 | inconclusive: 26.9 µM [inhibitor, single point]
Clc1cccc(-c2cc3nc4c(c(N5CCN(c6cnccn6)CC5)n3n2)CCCC4)c1 | active: 12 µM
Cc1ccccc1C(=O)Nc1cccc(C(=O)Nc2ccccc2C(=O)O)c1 | active: 26.9 µM
O=C(N/N=C/c1ccc(N2CCOCC2)cc1)C1COc2ccccc2O1 (configuration not stated) | inconclusive: 37.9 µM [inhibitor, partial curve, poor fit]
C/C(=N\NC(=O)COc1ccccc1[N+](=O)[O-])c1cccs1 | active: 23.9 µM
COC(=O)c1ccc2c(=O)n3c(nc2c1)SCC(c1ccccc1)=N3 | inconclusive: 3.79 µM [inhibitor, partial curve, poor fit]
O=C(Nc1cc(-c2ccccc2)[nH]n1)c1ccccc1F | active: 8.49 µM
CC(=O)Oc1ccc(C(=O)Nc2ccccc2C(=O)Nc2cccc(C(=O)O)c2)cc1 | active: 4.26 µM
Cc1sc(NC(=O)c2ccco2)c(CN2CCN(Cc3ccccc3)CC2)c1C | inconclusive: 26.9 µM [inhibitor, single point]
CCOC(=O)c1c(C)[nH]c(C(=O)OCC(=O)N2CCCC2=O)c1C | active: 12 µM
Cc1ccc(NC(=O)Cn2c(-c3cncs3)nc3ccccc32)c(Br)c1 | inactive
CCOC(=O)Cc1c(C)nc2cc(-c3ccc(Cl)cc3)[nH]n2c1=O | inconclusive: 4.26 µM [inhibitor, partial curve, poor fit]
Cc1ccc(S(=O)(=O)N2Cc3ccccc3CC2C(=O)Nc2ccc3c(c2)OCO3)cc1 (configuration not stated) | inconclusive: 30.1 µM [inhibitor, partial curve, poor fit]
Cc1ccccc1/C=C(\C#N)c1nc(-c2ccc(Cl)cc2)cs1 | inconclusive: 8.49 µM [inhibitor, partial curve, poor fit]

SMILES | Potency
COc1ccc(/C=N/NC(=O)CN(C2=NS(=O)(=O)c3ccccc32)c2ccccc2)cc1 | inactive
Cc1csc2nc(-c3ccc(NS(=O)(=O)c4cc(F)ccc4F)cc3)cn12 | inconclusive: 26.9 µM [inhibitor, partial curve]
CN(C(=O)c1ccc2c(Cl)c3c(nc2c1)CCC3)c1ccccc1F | inconclusive: 21.3 µM [inhibitor, single point]
Cc1ccc(/C=C/C(=O)NCCc2c[nH]c3ccccc23)o1 | inconclusive: 37.9 µM [inhibitor, partial curve, poor fit]
Cc1ccc(CNS(=O)(=O)c2cc3c(cc2Cl)NC(=O)CO3)o1 | inactive
O=C(Nc1nc2ccccc2[nH]1)C1CC1 | inconclusive: 37.9 µM [inhibitor, partial curve, poor fit]
O=C(CO/N=C/c1cccc([N+](=O)[O-])c1)Nc1ccc2ccccc2c1 | inconclusive: 33.8 µM [inhibitor, partial curve, poor fit]
COC(=O)c1ccc(C2=NOC(C)(c3sc(-c4ccccc4)nc3C)C2)cc1 (configuration not stated) | inconclusive: 37.9 µM [inhibitor, partial curve, poor fit]
O=C(CCCOC(=O)c1ccc(O)cc1O)c1ccccc1 | inconclusive: 21.3 µM [inhibitor, partial curve]
Cc1ccc(CC2C(=O)N(c3cc(Cl)ccn3)C(=O)C2C)cc1 (configuration not stated) | inconclusive: 26.9 µM [inhibitor, partial curve, poor fit]
CC(C)c1ccc(NC(=O)C(=O)c2cn(CC(=O)N3CCCCC3)c3ccccc23)cc1 | inconclusive: 7.57 µM [inhibitor, partial curve]
CCOC(=O)c1cc(C)n(-c2ccc(Cl)cc2)c1C | inconclusive: 37.9 µM [inhibitor, partial curve, poor fit]
COc1ccc(CNc2ccc3c(c2)ncn3-c2ccccc2OC)cc1 | inconclusive: 26.9 µM [inhibitor, partial curve]
O=C(N/N=C/C=C/c1ccccc1)c1cccs1 | active: 15.1 µM
CCOC(=O)c1[nH]c2ccccc2c1NC(=S)Nc1cccc(C)c1 | inactive
Cc1ccc(OCC(=O)NC2CCCC2)c(C)c1 | inconclusive: 26.9 µM [inhibitor, single point]
CC(C)/C=N/Nc1nc(-c2ccc(Br)cc2)cs1 | active: 7.57 µM
Cc1cc(C)cc(NC(=O)C2CCN(S(=O)(=O)c3cn(C)cn3)CC2)c1 | inactive
N#Cc1ccc(C(=O)N/N=C/c2cn(CC(=O)O)c3ccccc23)c(F)c1 | inconclusive: 21.3 µM [inhibitor, partial curve, poor fit]
C/C=C/c1ccc(OCCn2nnc3ccccc32)c(OC)c1 | active: 16.9 µM
COc1ccc([C@H]2CC(=O)C=C(c3ccc(Oc4ccccc4)cc3)C2)cc1OC | inactive
Cc1c(NC(=O)c2cn3ccccc3n2)cccc1-n1cnnn1 | inconclusive: 33.8 µM [inhibitor, partial curve, poor fit]
CCCSc1nc(-c2ccccc2)[nH]c1S(=O)(=O)c1ccc(C)cc1 | inconclusive: 21.3 µM [inhibitor, partial curve]
O=C(COc1ccc(-c2nnc(N3CCCCC3)c3ccccc23)cc1)N1CCCCC1 | inconclusive: 10.7 µM [inhibitor, partial curve]

SMILES | Potency
Nc1ccc2c(c1)OC1(CCCC1)O2 | inconclusive: 21.3 µM [inhibitor, partial curve, poor fit]
COc1ccc(CC(=O)Nc2cccc(C(=O)Nc3ccccc3C(=O)O)c2)cc1OC | active: 16.9 µM
COc1ccc([C@H]2CC(=O)C=C(c3ccc(C)c(F)c3)C2)cc1 | inactive
COc1ccc(-c2cc3ccc(O)c(CN4CCCC4)c3oc2=O)cc1 | inconclusive: 26.9 µM [inhibitor, partial curve]
CN(C)/C=N/c1ncc(C(=O)c2ccc(Cl)cc2)s1 | inconclusive: 19 µM [inhibitor, partial curve]
COc1cc(/C=C2/SC(=S)NC2=O)ccc1OS(=O)(=O)c1ccc(C)cc1 | inactive
COc1ccc(-c2nnc(-c3ccc(N(C)C)cc3)o2)cc1 | active: 2.13 µM
CC(=O)Nc1ccc(-c2csc(NC(=O)CC(NC(C)=O)c3ccccc3)n2)cc1 (configuration not stated) | inconclusive: 37.9 µM [inhibitor, single point]
CC(C)=CC(O)C/C(C)=C/COc1ccc2ccc(=O)oc2c1 (configuration not stated) | inconclusive: 37.9 µM [inhibitor, partial curve, poor fit]
CN(c1ccc(C(=O)Nc2ccc(F)cc2F)cc1)S(=O)(=O)c1ccccc1 | inactive
Cc1ccc(-c2ccc(CCC(=O)O)n2-c2ccc(C(N)=O)cc2)cc1 | inconclusive: 21.3 µM [inhibitor, partial curve, poor fit]
CCOc1ccc2nc(NC(=O)Nc3ccccc3)sc2c1 | active: 0.849 µM
O=C(/C=C/c1ccc(OC2CSC2)cc1)c1ccccc1 | active: 0.536 µM
COc1ccccc1/C=C/C(=O)NCCc1ccccn1 | active: 13.5 µM
CC(C)c1ccc(C2=NN(c3ccccc3)C(=O)CC2)cc1 | inconclusive: 26.9 µM [inhibitor, single point]
Cn1c(CNC(=O)c2ccco2)nnc1SCCOc1ccccc1 | inactive
CCOc1ccc(-n2c(=O)[nH]cc(C(=O)Nc3ccc(OC)c(OC)c3)c2=O)cc1 | inconclusive: 15.1 µM [inhibitor, partial curve, poor fit]
COc1ccc(OCCn2c(NC(=O)c3ccco3)nc3ccccc32)cc1 | inconclusive: 23.9 µM [inhibitor, partial curve, poor fit]
N/C(CSc1ccccn1)=N\OCc1c(Cl)cccc1Cl | inconclusive: 26.9 µM [inhibitor, partial curve]
CC(C)[C@H](NC(=O)c1ccccc1)C(=O)OCC(=O)Nc1ccc2c(c1)OCCO2 | inconclusive: 23.9 µM [inhibitor, partial curve, poor fit]
COc1cccc2cc(C(=O)Nc3cccc(C)n3)c(=O)oc12 | active: 0.213 µM
c1cnc(N2CCN(c3ncc4c(n3)CCNC4)CC2)nc1 | inactive
Nc1nnc(-c2cc3ccccc3oc2=O)s1 | inconclusive: 23.9 µM [inhibitor, partial curve]
COc1ccc(OC)c(-n2nnc(-c3nc(-c4cc(OC)c(OC)c(OC)c4)no3)c2C)c1 | inactive
